Measured values from the supplement of paper PMC10126150.
Sequences with one replicate were seen in a single cluster, so their values are uncertain.

These sequences were tested on ATP (assay: switch fluorescence ratio, 500 uM ATP over buffer (Cy3 cluster intensity, sum of 5 cycles each) (fold (ratio)); higher = stronger signal-on switching upon ATP binding; sequences stand for … in TCGTCGGCAGCGTCAGATGTGTATAAGAGACAGTTTTTTTTTTTTTTTTTTTTTTTTT…TC). Details: aptamer strand: ATP DNA aptamer (quencher-CACCTGGGGGAGTATTGCGGAGGAAGG + anchor), 100 nM annealed; ATP concentration: 500 uM; one replicate.
Summary of the method: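 Exposure to 500 uM ATP lasted 15 min at 22 °C before imaging, and a selection-buffer image was taken beforehand, for Cy3-labelled switching-strand clusters on a modified Illumina MiSeq flow-cell annealed to 100 nM quencher-labelled ATP aptamer. Five buffer/ATP cycles were run with NaOH stripping and re-annealing between them. The fluorescence ratio per cluster is summed target-cycle over summed buffer-cycle Cy3 intensity, averaged per switch-domain sequence. Clusters outside 100-1000 RFU were excluded.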

| Sequence | switch fluorescence ratio |
| --- | --- |
| CTAATCTGTA | 0.954 |
| CTAATGGTGT | 1.03 |
| CTAATTAATG | 1.04 |
| CTAATTCTTC | 0.993 |
| CTACCATGAC | 2.03 |
| CTACCGTGTC | 1.04 |
| CTACCTCTGA | 1.06 |
| CTACCTCTGT | 1.05 |
| CTACGGGGTC | 1.2 |
| CTACGTACCG | 1.4 |
| CTACTACACA | 1.36 |
| CTACTCACGC | 1.38 |
| CTACTCCCGT | 1.29 |
| CTACTGGACC | 1.16 |
| CTAGAATCTT | 0.957 |
| CTAGAATTCT | 0.98 |
| CTAGAGTTCT | 0.982 |
| CTAGATCGGC | 0.979 |
| CTAGATGCAC | 1.07 |
| CTAGATGCGT | 1.04 |
| CTAGATGGTC | 1.01 |
| CTAGCAACGA | 1.17 |
| CTAGCCAAAA | 1.02 |
| CTAGCCCCTA | 1.02 |
| CTAGCTCACG | 1.06 |

| Sequence | switch fluorescence ratio |
| --- | --- |
| CTAGGAAGGG | 0.975 |
| CTAGGAATGG | 1.03 |
| CTAGGACGAG | 0.996 |
| CTAGGAGACT | 1.06 |
| CTAGGATGCG | 1.02 |
| CTAGGCG | 1 |
| CTAGGCGCTT | 1.03 |
| CTAGGGCGTG | 0.972 |
| CTAGGTAGCG | 0.989 |
| CTAGGTGTTA | 1.03 |
| CTAGTAATGT | 0.977 |
| CTAGTACAGA | 0.98 |
| CTAGTAGATT | 0.952 |
| CTAGTATTCG | 0.997 |
| CTAGTATTT | 1.03 |
| CTAGTCAATA | 1.33 |
| CTAGTCAGA | 0.963 |
| CTAGTCAGGG | 1 |
| CTAGTTGAGG | 0.999 |
| CTAGTTTGCT | 0.917 |
| CTATAAATTT | 1.04 |
| CTATAATGGC | 1.06 |
| CTATACAGT | 0.992 |
| CTATACGAGC | 1.01 |
| CTATAGTCA | 1 |

| Sequence | switch fluorescence ratio |
| --- | --- |
| CTATATCAGG | 1.08 |
| CTATCACGGA | 1 |
| CTATCATGTT | 0.928 |
| CTATCCAACG | 1.05 |
| CTATCTGAGT | 1.01 |
| CTATCTGCAT | 1.41 |
| CTATGAACTA | 0.993 |
| CTATGGACGG | 1.01 |
| CTATGTGTTC | 1.03 |
| CTATGTTTGT | 0.983 |
| CTATTAAAAG | 1.11 |
| CTATTAGTCT | 0.978 |
| CTATTCGGAG | 1.02 |
| CTATTCGGCT | 0.987 |
| CTATTCGTGT | 0.995 |
| CTATTGGGGC | 1.03 |
| CTATTGTGCA | 1.02 |
| CTATTGTGGT | 0.959 |
| CTATTTTA | 1.1 |
| CTCAAAGAAA | 1 |
| CTCAACGAGG | 1 |
| CTCAACGTCC | 1.19 |
| CTCAAGAGTT | 0.928 |
| CTCAATGATA | 1.03 |
| CTCAATGGCA | 0.98 |

| Sequence | switch fluorescence ratio |
| --- | --- |
| CTCAATGTTC | 1.03 |
| CTCACGTTCG | 1.06 |
| CTCACTGTCT | 1.03 |
| CTCAGAGTGA | 1.05 |
| CTCAGATGTT | 0.98 |
| CTCAGGGTGG | 0.959 |
| CTCAGGTA | 1.01 |
| CTCAGTGCGA | 1.2 |
| CTCAGTTGTA | 1.02 |
| CTCATAGCG | 0.98 |
| CTCATGGCTT | 1.01 |
| CTCATTGGCG | 0.994 |
| CTCCACGTAT | 1.12 |
| CTCCAGACCT | 1.39 |
| CTCCCAAGGT | 2.71 |
| CTCCCACTT | 1.1 |
| CTCCCTAAAT | 1.23 |
| CTCCGAGCTA | 4.18 |
| CTCCGATCAG | 1.82 |
| CTCCGGGCCC | 1.18 |
| CTCCTCCTCT | 1.27 |
| CTCCTCGAAA | 1.85 |
| CTCCTCTTTA | 1.09 |
| CTCCTGTTGG | 0.995 |
| CTCCTTTCAC | 1.19 |
